Reference: publication PMC4242493
This is one part of the list. The list includes weakly bound sequences.

target: MaxL homodimer (UniProt P61244); assay: universal protein-binding microarray (PBM); conditions: PBS-based mixture, 10 nM His-tagged protein dimer, 2% milk, 200 ng/uL BSA, 50 ng/uL salmon testes DNA, 0.02% TX-100; detection with Alexa 488 anti-His …; high values mean tight binding; most listed sequences are background and not binding sites; double strand, one strand shown
Chain of UniProt P61244 (P61244 whole entry): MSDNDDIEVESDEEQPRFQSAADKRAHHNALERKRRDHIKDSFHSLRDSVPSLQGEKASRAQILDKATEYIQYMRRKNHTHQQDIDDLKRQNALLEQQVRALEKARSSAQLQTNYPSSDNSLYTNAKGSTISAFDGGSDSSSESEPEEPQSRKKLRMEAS

Row | Sequence | binding signal (normalized occupancy)
1 | ACGCCAAT | 0.0803
2 | AGCCGGAT | 0.0694
3 | CGCATGAG | 0.0969
4 | ACGTGTCC | 0.0932
5 | CACGTTCA | 0.0904
6 | GGGATTAA | 0.0776
7 | CGATCCAC | 0.0843
8 | AGACCGGG | 0.0654
9 | CCTCTAAA | 0.0778
10 | GTCGACAC | 0.0728
11 | CTCCATCC | 0.0804
12 | CCGGCTCC | 0.0662
13 | CCATACAG | 0.0794
14 | GCCATAGA | 0.0739
15 | TCGTGGCA | 0.0869
16 | GCTCACAC | 0.0846
17 | ACTTCCCA | 0.0801
18 | GACGCATA | 0.0777
19 | GAGAGAGC | 0.0732
20 | AGATGTGA | 0.085
21 | AGACGGGA | 0.0744
22 | CTAAGAAG | 0.0744
23 | TACACTGA | 0.0734
24 | ACGATCGC | 0.0709
25 | CGCGAAGC | 0.0677

Row | Sequence | binding signal (normalized occupancy)
26 | CAGTTGGC | 0.0723
27 | CCAAGTGC | 0.0678
28 | ATAATGAT | 0.0829
29 | AAAGCATG | 0.104
30 | ACCAAGAA | 0.0736
31 | ATACCATC | 0.0856
32 | GGTGCCAC | 0.0739
33 | CTGATCAC | 0.0776
34 | CCCTAGCC | 0.0744
35 | AATATGCA | 0.0847
36 | TAGAACCA | 0.0767
37 | ATTGCTCG | 0.0776
38 | GCAGTAAA | 0.0758
39 | AGAAGCAT | 0.0841
40 | AGCTTCCG | 0.068
41 | AATCAGCA | 0.0812
42 | GCTTTCGA | 0.067
43 | AGCTGGAG | 0.0708
44 | ATTGGGGC | 0.0771
45 | CACCGGCC | 0.0709
46 | GCAGTTCC | 0.0712
47 | CACGGCTA | 0.0703
48 | CACAGGAA | 0.0754
49 | CCCTCATA | 0.0847
50 | CTCAGAGA | 0.0698

Row | Sequence | binding signal (normalized occupancy)
51 | ACGTGCGC | 0.113
52 | GACGTACC | 0.0761
53 | CAATGACG | 0.0749
54 | CGCGTCGC | 0.0637
55 | AGGCCGAT | 0.0714
56 | CTATCGAA | 0.0758
57 | AACCATCC | 0.0757
58 | GAGGGTTA | 0.0763
59 | ATCTTCCG | 0.0758
60 | AATCTTAC | 0.0743
61 | AATGATGA | 0.084
62 | GAAGTAAA | 0.0723
63 | CACGCAGC | 0.085
64 | AGTAAGAA | 0.0725
65 | TCAGGGAA | 0.0724
66 | ACGGTGCA | 0.0756
67 | ATAGATAC | 0.0866
68 | GTACGGGA | 0.0747
69 | CGAAGGCG | 0.0734
70 | ACCACTGG | 0.0709
71 | CAGTAGGA | 0.0663
72 | TATCGCCA | 0.0743
73 | ACCTAAAC | 0.0721
74 | GGTAACCA | 0.0775
75 | CACTGATG | 0.0715

Row | Sequence | binding signal (normalized occupancy)
76 | GTCACGGA | 0.076
77 | CACGACGG | 0.0811
78 | GGGTAGAA | 0.0805
79 | AGCGAGAC | 0.068
80 | ATCTCCGC | 0.0705
81 | CGTTCGAC | 0.073
82 | AAACCATC | 0.0742
83 | AAGTAGGG | 0.0748
84 | ACGTGGCG | 0.107
85 | ATCGAGAA | 0.0738
86 | AAAGGATG | 0.078
87 | CAACTAGA | 0.0757
88 | AGACCTGG | 0.0738
89 | CCGTACGC | 0.072
90 | AGAAAAGC | 0.0685
91 | CTCACCGA | 0.0723
92 | ACCCCTCC | 0.0811
93 | AGGAGAGC | 0.071
94 | AATAGGAT | 0.0766
95 | GGCACCCA | 0.0735
96 | CTGTCCAA | 0.0722
97 | GGGTGTCA | 0.074
98 | CGGTGAAC | 0.0739
99 | CACGCACG | 0.096
100 | AACAGCGT | 0.0788

Row | Sequence | binding signal (normalized occupancy)
101 | ATCACACG | 0.0937
102 | AGAGAGGC | 0.0704
103 | GTTCGGTA | 0.0727
104 | TGGACAAA | 0.0731
105 | GCGAACAA | 0.0729
106 | CCCCGGAA | 0.0711
107 | CTTCCCCC | 0.0849
108 | GGGACCCA | 0.077
109 | TCCCTTCA | 0.0708
110 | AATTCGTG | 0.0753
111 | CAACGGCG | 0.0721
112 | AATGAGAG | 0.0794
113 | ATGTTCAC | 0.083
114 | GAAGCCTA | 0.0741
115 | AATTTGTC | 0.0683
116 | CGAACAAA | 0.075
117 | GGATACAC | 0.0837
118 | CCGATGGA | 0.0694
119 | GATGCTAC | 0.081
120 | CAATGAAG | 0.0754
121 | AGTGTATG | 0.0768
122 | GTGTGCAA | 0.0818
123 | ATGTGTCG | 0.0903
124 | CAACTAAA | 0.075
125 | GCATGGCC | 0.0963

Row | Sequence | binding signal (normalized occupancy)
126 | ATGTACCA | 0.0841
127 | ACTAGTAG | 0.075
128 | AGCATGCT | 0.134
129 | ATCCTCCC | 0.08
130 | CAGCACGC | 0.0982
131 | GAAATTCA | 0.0712
132 | AAGTTTGC | 0.0742
133 | CCAGATGA | 0.0784
134 | CACGGGCA | 0.081
135 | TTGTCAAA | 0.0728
136 | TCGTATCA | 0.0809
137 | AGCGCGCC | 0.0749
138 | TGCGTGAA | 0.0808
139 | AGGTACCC | 0.0689
140 | CAGCCGTC | 0.0668
141 | GATAAGTA | 0.0776
142 | AGATTGGA | 0.0757
143 | CTCGTACA | 0.0824
144 | ATCAAACA | 0.0837
145 | AACTGGCC | 0.0714
146 | GGATCCCC | 0.0758
147 | TGCTGTAA | 0.071
148 | AAATCGCT | 0.0685
149 | CGTCTTGC | 0.0704
150 | AGATCGCT | 0.0709

Row | Sequence | binding signal (normalized occupancy)
151 | ATGGGGAA | 0.0844
152 | CCATACGC | 0.0803
153 | AGCCTGAA | 0.073
154 | ACTGAGAG | 0.0734
155 | AGCTGACC | 0.0672
156 | CCAGGAGC | 0.0656
157 | ATTATAAT | 0.0809
158 | GACATCAA | 0.0726
159 | AATTACGA | 0.0775
160 | AAAGAAAG | 0.0763
161 | AAGCCAGA | 0.0728
162 | AAAGAAGT | 0.0706
163 | AAGTCGGC | 0.0693
164 | GATAGTGA | 0.0749
165 | ATTCATCA | 0.088
166 | ACATGACG | 0.0854
167 | AATATACG | 0.0866
168 | TATAGAAA | 0.0822
169 | AAAGCGAA | 0.0655
170 | AGGGGATG | 0.0818
171 | AGTCCCGC | 0.0715
172 | ACCCACGA | 0.0913
